Experimental data from PubChem BioAssay AID1476 (National Center for Advancing Translational Sciences (NCATS), 2009).
Screen size: about 200,000 compounds; about 4,500 (2.2%) were called active. This list was built around the results that the source calls inconclusive (neither active nor inactive); the mix of calls is not that of the screen. Calls come from the whole dose curve; as a rule, active = well fitted inhibition curve with a large enough effect; inconclusive = small, poorly fitted or top-dose-only effect, or effect the other way; inactive = flat fitted curve, though single readings scatter. A potency beside an inconclusive call is a rough fit, not a confirmed value.
Note: nearly all actives have a fitted effect of over 40% in size.
Potency is the fitted concentration of half-maximal effect; tags give direction and shape of the fitted curve.
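Throughout, for max response, negative = inhibition: plate controls were enzyme without inhibitor for no effect and buffer without enzyme for full effect.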

The compounds below were run against Cruzipain (Trypanosoma cruzi) (UniProt P25779) (assay: qHTS Assay for Promiscuous and Specific Inhibitors of Cruzain (without detergent)). Details: purified cruzain, Z-FR-AMC fluorescence, no detergent.
UniProt P25779, sequence (P25779 whole entry, looked up): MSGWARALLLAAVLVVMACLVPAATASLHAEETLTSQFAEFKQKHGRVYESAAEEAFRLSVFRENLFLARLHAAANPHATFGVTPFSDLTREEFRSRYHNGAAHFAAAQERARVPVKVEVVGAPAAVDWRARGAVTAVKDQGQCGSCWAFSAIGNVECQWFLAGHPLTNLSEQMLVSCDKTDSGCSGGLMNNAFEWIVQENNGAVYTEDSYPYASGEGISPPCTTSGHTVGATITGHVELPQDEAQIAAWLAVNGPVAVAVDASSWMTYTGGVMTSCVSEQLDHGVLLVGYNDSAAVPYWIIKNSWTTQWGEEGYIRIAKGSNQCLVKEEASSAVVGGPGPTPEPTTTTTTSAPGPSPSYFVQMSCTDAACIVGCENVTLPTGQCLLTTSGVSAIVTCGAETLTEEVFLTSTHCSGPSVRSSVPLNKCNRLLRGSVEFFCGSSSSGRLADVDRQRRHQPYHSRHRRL
How it was run: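 Purified cruzain at 1.5 nM, pre-incubated 15 min with compound at room temperature in 100 mM sodium acetate pH 5.5, 5 mM DTT, 0.00005% Triton X-100. Reaction started with 2 uM Z-FR-AMC; AMC fluorescence increase over 60 s gives rate.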
With `Cc1ccc(-c2nn3c(-c4ccccc4C)nnc3c3ccccc23)cc1` the max response, negative = inhibition was inactive: 2.27%.
In the case of `COc1ccc(NC(=O)c2ccco2)cc1NC(=O)COc1ccc(C)c(C)c1`, the Potency is reported as inconclusive: 20 µM [activator, single point].
For `O=C(c1cccc(F)c1)N1CCc2ccccc2C1`, the max response, negative = inhibition was inactive: 2.57%.
With `CCN(CC)S(=O)(=O)c1ccc(-c2nnc(SCC(=O)Nc3ccc(OC)c(OC)c3)o2)cc1` the Potency was inconclusive: 39.8 µM [activator, single point].
With `O=C(/C=C1\SC(=O)N(CC(=O)Nc2ccc(F)cc2)C1=O)Nc1ccc(Cl)cc1` the Potency was active: 25.1 µM.
`Cc1ccc2c(c1)n([O-])c1c([n+]2=O)CCCC1` was tested, and the max response, negative = inhibition was inactive: -3.84%.
For `CCOC(=O)C(C(=O)OCC)N(C#N)c1nc(SC)nc(N(C)C)n1`, the Potency was active: 3.16 µM.
`c1ccc(Nc2cc(Nc3ccccc3)[nH]n2)cc1` was tested, and the max response, negative = inhibition was inactive: -0.353%.
For `Cc1nn(C)c(C)c1S(=O)(=O)N(CC(=O)NCCc1ccccc1)c1ccc(C(C)C)cc1`, the Potency was inconclusive: 3.16 µM [activator, single point].
For `O=C(NCCc1ccccc1)c1ccc2c(c1)N(Cc1ccc(Cl)cc1)C(=O)CS2`, the Potency was inconclusive: 39.8 µM [inhibitor, single point].
For `CCOC(=O)c1ccc(N2C(=O)CC(N3CC=C(c4ccc(F)cc4)CC3)C2=O)cc1` (stereo not drawn), the Potency was inconclusive: 39.8 µM [inhibitor, single point].
For `CC(=O)NCCNc1ccnc(-c2ccccc2C(F)(F)F)n1`, the max response, negative = inhibition was inactive: 15.9%.
With `CCn1cc(C(=O)N(C)Cc2ccccc2)c(=O)c2cc(S(=O)(=O)N3CCc4ccccc4C3)ccc21` the Potency was inconclusive: 39.8 µM [activator, single point].
`COc1ccc(/C=C2\SC(=O)N(CCNC(=O)C3CCN(S(=O)(=O)c4cccs4)CC3)C2=O)cc1` was tested, and the max response, negative = inhibition was inactive: 0.827%.
For `COc1cc(C)ccc1OCCSc1nc2ccc(NC(=O)c3ccco3)cc2s1`, the Potency was inconclusive: 20 µM [activator, single point].
`CCOc1ccc(-c2nc(Cn3c(=O)cc(C)c4c(C)nn(-c5ccccc5)c43)c(C)o2)cc1` was tested, and the max response, negative = inhibition was inactive: -8.58%.
`CSc1ccc(Cn2nnc(C(=O)Nc3ccc(C)c(C)c3)c2N)cc1` was tested, and the Potency was active: 25.1 µM.
With `COc1ccc(C(=O)NC(=S)Nc2ccccc2N2CCOCC2)cc1Br` the Potency was inconclusive: 39.8 µM [inhibitor, single point].
For `CCc1ccc2nc3sc(C(=O)N4CCc5ccccc54)c(N)c3cc2c1`, the Potency was active: 25.1 µM.
In the case of `COc1ccc(CCNC(=O)CCSc2nc(-c3ccco3)cc(C(F)(F)F)n2)cc1OC`, the Potency is reported as inconclusive: 31.6 µM [activator, partial curve].
For `COCCn1c(SCC(=O)Nc2cc(Cl)ccc2OC)nc2c([nH]c3ccccc32)c1=O`, the max response, negative = inhibition was inactive: 5.22%.
For `COC(=O)c1ccc(CNC(=O)c2ccc(COc3ccccc3)cc2)cc1`, the Potency was active: 10 µM.
`Cc1ccc(NC(=O)Cn2nc(-c3ccccc3)nc(Cc3ccc(Cl)cc3)c2=O)cc1` was tested, and the Potency was active: 25.1 µM.
With `CCC(C)(C)n1nnnc1C(c1cc2cc(C)cc(C)c2[nH]c1=O)N1CCN(C(=O)c2ccco2)CC1` (stereo not drawn) the Potency was inconclusive: 31.6 µM [activator, single point].
For `CCc1ccc2c(CN3CCN(S(=O)(=O)c4ccc5c(c4)OCCO5)CC3)cc(=O)oc2c1`, the Potency was inconclusive: 25.1 µM [inhibitor, single point].
For `CCCCn1c2nc3ccccc3nc2c2c(=O)n(C(C)CC)cnc21` (stereo not drawn), the Potency was inconclusive: 25.1 µM [activator, single point].
With `CCOc1cc(/C=N/N=C(/N)c2nonc2N)cc(Br)c1OCc1ccc(Cl)cc1` the Potency was active: 3.98 µM.
With `COc1cc(/C=C2\C(=O)N(CCC#N)N=C2C)ccc1OCC(=O)Nc1ccccc1` the Potency was inconclusive: 31.6 µM [activator, single point].
With `COc1ccc(OC)c(CNC(=O)c2ccc(N3Cc4ccccc4Oc4ncccc43)s2)c1` the Potency was inconclusive: 39.8 µM [inhibitor, single point].
For `Cc1nc2sc(C(c3ccc(Cl)cc3)N3CC(C)OC(C)C3)c(O)n2n1` (stereo not drawn), the Potency was inconclusive: 25.1 µM [activator, single point].
`COc1cc(NC(=O)Cn2nc(C(F)(F)F)c3c2CCC3)cc(OC)c1OC` was tested, and the Potency was inconclusive: 39.8 µM [activator, single point].
With `Cc1cc(NC(=O)/C=C/c2ccc(Br)cc2)no1` the Potency was inconclusive: 25.1 µM [inhibitor, single point].
In the case of `CCN(CC)C(=O)c1ccc2c(=O)n(CCOC)c(=S)[nH]c2c1`, the Potency is reported as inconclusive: 6.31 µM [activator, single point].
With `O=C1OCC2=C1C(c1cccc(Cl)c1)CC(=O)N2c1ccc(C(F)(F)F)cc1` (stereo not drawn) the max response, negative = inhibition was inactive: 0.209%.
In the case of `COc1ccc(-c2csc(Nc3ncccc3C)n2)cc1OC`, the Potency is reported as inconclusive: 39.8 µM [activator, single point].
For `CC1=NOC(=O)/C1=C/c1ccc(-c2ccc(Cl)cc2)o1`, the Potency was inconclusive: 39.8 µM [activator, single point].
In the case of `COc1ccc(CC(=O)Nc2c(C(=O)N3CCN(c4ccccc4)CC3)oc3ccccc23)cc1OC`, the Potency is reported as inconclusive: 25.1 µM [activator, partial curve].
With `CCC(C)(C)n1nnnc1C(C(C)C)N(CCCO)Cc1cc2cc(C)ccc2[nH]c1=O` (stereo not drawn) the Potency was inconclusive: 39.8 µM [activator, single point].
With `O=C(NC1CCCCCCC1)c1ccc2c(c1)N(Cc1ccc(F)cc1)C(=O)CS2=O` (stereo not drawn) the Potency was inconclusive: 31.6 µM [activator, single point].
In the case of `O=C(Cc1ccccc1)Nc1ccccc1Oc1ccccc1`, the max response, negative = inhibition is reported as inactive: -5.61%.
For `Cc1cccc(-c2nnc(NC(=O)c3ccc(N4C(=O)CCC4=O)cc3)s2)c1`, the Potency was inconclusive: 39.8 µM [inhibitor, single point].
For `COc1ccc(C(=O)c2c(N)c(-c3nc(-c4ccc5c(c4)OCO5)cs3)c3ccccn23)cc1`, the Potency was inconclusive: 0.398 µM [activator, partial curve].
For `Cc1cc(OCC(=O)Nc2ccc(N3CCN(C(=O)c4ccco4)CC3)cc2)cc(C)c1Cl`, the max response, negative = inhibition was inactive: 0.839%.
In the case of `O=C(CCNS(=O)(=O)c1ccc2c(c1)CCCC(=O)N2)Nc1cccc(Cl)c1`, the max response, negative = inhibition is reported as inactive: -5.72%.
With `COc1ccc(Br)cc1/C=C/C(=O)Nc1c(C)cccc1C` the Potency was inconclusive: 25.1 µM [inhibitor, single point].
With `COc1ccc(-c2c(C#N)c(SCC(=O)c3cc4ccccc4oc3=O)nc(C)c2C(=O)Nc2ccccc2)cc1` the Potency was inconclusive: 5.01 µM [inhibitor, full curve].
With `COCCN(C(=O)c1ccco1)c1nnc(-c2ccc(OC)cc2)s1` the Potency was inconclusive: 39.8 µM [activator, single point].
With `CCc1cccc(NC(=O)CCn2c(=O)c3cccn3c3cccnc32)c1` the max response, negative = inhibition was inactive: -3.63%.
`C=CCn1c(SCC(=O)Nc2ccc(-c3nc4ccc(C)cc4s3)cc2)nnc1-c1ccccc1` was tested, and the Potency was inconclusive: 10 µM [activator, partial curve].
With `CCOC(=O)c1ccc(NC(=O)Cn2nc3c4ccccc4n(Cc4cccc(F)c4)cc-3c2=O)cc1` the max response, negative = inhibition was inactive: 1.29%.
For `O=C(CCn1c(=O)c2sccc2n(Cc2ccccc2F)c1=O)NCc1ccc2c(c1)OCO2`, the max response, negative = inhibition was inactive: -15.1%.
For `COc1ccc(Cn2c(O)c(C=Nc3ccc(OC)cc3)c3ccccc3c2=O)cc1`, the Potency was active: 12.6 µM.
`CCCCC(=O)Nc1ccc2nc(SCC(=O)N3CCc4ccccc43)sc2c1` was tested, and the max response, negative = inhibition was inactive: -18.6%.
For `Cc1ccc(N=Nc2c(O)ccc3cc(S(=O)(=O)O)ccc23)cc1`, the Potency was inconclusive: 3.98 µM [activator, single point].
In the case of `CC(=O)Nc1ccc(NC(=O)c2oc3c(c2C)-c2nn(Cc4ccccc4Cl)cc2CC3)cc1`, the max response, negative = inhibition is reported as inactive: -2.43%.
`Cn1nccc1C(=O)OCC(=O)Nc1nc(-c2ccccc2)cs1` was tested, and the max response, negative = inhibition was inactive: -5.91%.
With `CCc1ccc(-c2csc(NC(=O)COC(=O)CCc3nc4ccccc4s3)n2)cc1` the Potency was active: 12.6 µM.
In the case of `COc1cccc2cc(-c3nc(-c4ccccc4F)no3)c(=O)oc12`, the max response, negative = inhibition is reported as inactive: 29.7%.
With `COCCNC(=O)c1ccc2c(c1)N(Cc1cc(C)ccc1C)C(=O)c1ccccc1S2=O` (stereo not drawn) the Potency was inconclusive: 39.8 µM [activator, single point].
In the case of `Cc1cc(=O)[nH]c2nnc(SCc3ccc(Cl)cc3Cl)n12`, the max response, negative = inhibition is reported as inactive: -5.45%.
With `CCCCN(C)CC(O)Cn1cc(/C=C/C(=O)c2ccc(Br)cc2)c2ccccc21` (stereo not drawn) the Potency was inconclusive: 39.8 µM [inhibitor, single point].
For `COc1ccc(-c2nc(CSCC(=O)N3CCc4ccccc43)c(C)o2)cc1OC`, the Potency was inconclusive: 39.8 µM [activator, single point].
`COc1cc(OC)cc(-c2nc3nc(C)c(CCC(=O)Nc4cc(C)cc(C)c4)c(C)n3n2)c1` was tested, and the max response, negative = inhibition was inactive: 0.938%.
In the case of `COc1ccccc1NC(=O)c1ccc2nc(-c3ccccc3)c(-c3ccccc3)nc2c1`, the Potency is reported as active: 31.6 µM.
In the case of `Cc1ccc(-c2cc(C(=O)Nc3nccs3)c3ccccc3n2)c(C)c1`, the Potency is reported as inconclusive: 39.8 µM [inhibitor, single point].
With `Oc1ccc(/C=N/N=C(c2ccccc2)c2ccccc2)c(O)c1O` the max response, negative = inhibition was inactive: -3.13%.
In the case of `COc1ccc(-n2c(=S)[nH]c3sc4c(c3c2=O)CCc2ccccc2-4)cc1`, the Potency is reported as inconclusive: 39.8 µM [inhibitor, single point].
`Cc1cc(C)cc(-n2c(SCC(=O)Nc3ccccc3)nc3c(oc4ccccc43)c2=O)c1` was tested, and the Potency was inconclusive: 25.1 µM [inhibitor, single point].
